Source: the supplement of paper PMC8813932
Where a name gives a salt, the structure may show the parent alone. ± gives the standard deviation of the averaged measurements. The list shows a part of the results. Most values come without repeats; read them as rough.

Columns and labels:
Test in all cases: log2 surviving fraction relative to plate median (drug vs vehicle, or drug+dl922-947 vs dl922-947 alone); ovarian cancer lines: OVCAR4 is platinum-sensitive while Ov4Cis resists cisplatin and Ov4Carbo carboplatin; higher = more cell survival
Details in all cases: compound concentration: 10 uM, 192 h
[1] = tested on: OVCAR4
[2] = tested on: Ov4Carbo
[3] = tested on: Ov4Cis
[4] = dl922-947 oncolytic adenovirus co-treatment: MOI 10
[5] = dl922-947 oncolytic adenovirus co-treatment: none

For `O=C(O)C(=O)O.[NH-]C1CCCCC1[NH-].[Pt+2]` (configuration not stated) [Oxaliplatin (Eloxatin)], the log2 surviving fraction [1, 4] was 0.268 ± 1.3, the log2 surviving fraction [1, 5] was 1.87 ± 3.5 and the log2 surviving fraction [2, 4] was -0.959. It also gave a log2 surviving fraction [2, 5] of 1.73, a log2 surviving fraction [3, 4] of 0.284 and a log2 surviving fraction [3, 5] of -0.207.
In the case of `Cn1cnc([N+](=O)[O-])c1Sc1ncnc2[nH]cnc12` [Azathioprine (Azasan, Imuran)], the log2 surviving fraction [1, 4] is reported as -0.729 ± 0.072, the log2 surviving fraction [1, 5] is reported as -3.76 ± 1.5 and the log2 surviving fraction [2, 4] is reported as -0.743. It also gave a log2 surviving fraction [2, 5] of -5.78, a log2 surviving fraction [3, 4] of -0.331 and a log2 surviving fraction [3, 5] of -1.69.
In the case of `C[C@H](Cn1cnc2c(N)ncnc21)OCP(=O)(O)O` [Tenofovir (Viread)], the log2 surviving fraction [1, 4] is reported as -0.73 ± 0.76, the log2 surviving fraction [1, 5] is reported as -0.29 ± 0.81 and the log2 surviving fraction [2, 4] is reported as 0.274. It also gave a log2 surviving fraction [2, 5] of 0.968, a log2 surviving fraction [3, 4] of -0.496 and a log2 surviving fraction [3, 5] of -0.274.
In the case of `NC(=O)c1cccnc1` [Nicotinamide (Niacinamide)], the log2 surviving fraction [1, 4] is reported as 0.379 ± 1.6, the log2 surviving fraction [1, 5] is reported as -0.0898 ± 0.56 and the log2 surviving fraction [2, 4] is reported as 1.2. It also gave a log2 surviving fraction [2, 5] of 0.252, a log2 surviving fraction [3, 4] of 0.661 and a log2 surviving fraction [3, 5] of 0.62.
`CC(=O)O[C@H]1C(=O)[C@@]2(C)[C@H]([C@H](OC(=O)c3ccccc3)[C@]3(O)C[C@H](OC(=O)[C@H](O)[C@@H](NC(=O)c4ccccc4)c4ccccc4)C(C)=C1C3(C)C)[C@]1(OC(C)=O)CO[C@@H]1C[C@@H]2O` [Paclitaxel (Taxol)] gave a log2 surviving fraction [1, 4] of -5.35 ± 0.55, a log2 surviving fraction [1, 5] of -5.34 ± 6.7 and a log2 surviving fraction [2, 4] of -4.96. It also gave a log2 surviving fraction [2, 5] of -8.1, a log2 surviving fraction [3, 4] of -4.42 and a log2 surviving fraction [3, 5] of -6.69.
`Clc1ccccc1CN1CCc2sccc2C1` [Ticlopidine HCl] was tested, and the log2 surviving fraction [1, 4] was 0.406 ± 0.28, the log2 surviving fraction [1, 5] was 0.216 ± 0.021 and the log2 surviving fraction [2, 4] was -0.0843. It also gave a log2 surviving fraction [2, 5] of -0.127, a log2 surviving fraction [3, 4] of 1.14 and a log2 surviving fraction [3, 5] of 0.0145.
`Cc1ccc(C(=O)c2cc(O)c(O)c([N+](=O)[O-])c2)cc1` [Tolcapone] gave a log2 surviving fraction [1, 4] of 0.603 ± 0.58, a log2 surviving fraction [1, 5] of 0.975 ± 1.6 and a log2 surviving fraction [2, 4] of -0.741. The log2 surviving fraction [2, 5] was 2.49, the log2 surviving fraction [3, 4] was -0.314 and the log2 surviving fraction [3, 5] was 0.774.
Molecule `CC(C)n1c(/C=C/C(O)CC(O)CC(=O)O)c(-c2ccc(F)cc2)c2ccccc21` (configuration not stated) [Fluvastatin sodium (Lescol)] has a log2 surviving fraction [1, 4] of -1.57 ± 0.7, a log2 surviving fraction [1, 5] of -5.02 ± 0.52 and a log2 surviving fraction [2, 4] of -1.9. For the same molecule, the log2 surviving fraction [2, 5] was -7.87, the log2 surviving fraction [3, 4] was -0.69 and the log2 surviving fraction [3, 5] was -5.24.
Molecule `NCC[C@H](O)C(=O)N[C@@H]1C[C@H](N)[C@@H](O[C@H]2O[C@H](CN)[C@@H](O)[C@H](O)[C@H]2O)[C@H](O)[C@H]1O[C@H]1O[C@H](CO)[C@@H](O)[C@H](N)[C@H]1O` [Amikacin hydrate] has a log2 surviving fraction [1, 4] of 0.463 ± 0.82, a log2 surviving fraction [1, 5] of 0.381 ± 0.41 and a log2 surviving fraction [2, 4] of 1.19. For the same molecule, the log2 surviving fraction [2, 5] was 0.231, the log2 surviving fraction [3, 4] was 0.457 and the log2 surviving fraction [3, 5] was -0.529.
For `Cc1cc(=O)[nH]c(=S)[nH]1` [Methylthiouracil], the log2 surviving fraction [1, 4] was 0.155 ± 0.37, the log2 surviving fraction [1, 5] was 0.359 ± 0.48 and the log2 surviving fraction [2, 4] was 0.297. It also gave a log2 surviving fraction [2, 5] of -0.000826, a log2 surviving fraction [3, 4] of 0.0813 and a log2 surviving fraction [3, 5] of 0.5.
For `Cc1cccc(Nc2ccccc2C(=O)O)c1C` [Mefenamic acid], the log2 surviving fraction [1, 4] was -0.393 ± 0.13, the log2 surviving fraction [1, 5] was -0.269 ± 0.59 and the log2 surviving fraction [2, 4] was 0.16. The log2 surviving fraction [2, 5] was -0.222, the log2 surviving fraction [3, 4] was 0.115 and the log2 surviving fraction [3, 5] was 0.282.
With `C[C@@H]1C(=O)O[C@H]2C[C@@]34[C@H]5C[C@@H](C(C)(C)C)[C@]36[C@@H](OC(=O)[C@@H]6O)O[C@@]4(C(=O)O5)[C@]21O` [Ginkgolide A] the log2 surviving fraction [1, 4] was -0.338 ± 1.4, the log2 surviving fraction [1, 5] was -0.683 ± 0.13 and the log2 surviving fraction [2, 4] was 0.769. The log2 surviving fraction [2, 5] was 0.0911, the log2 surviving fraction [3, 4] was -0.729 and the log2 surviving fraction [3, 5] was -0.378.
`O=C1NCC2(CCN(CCc3ccccc3)CC2)O1` [Fenspiride HCl] was tested, and the log2 surviving fraction [1, 4] was 0.334 ± 0.64, the log2 surviving fraction [1, 5] was 0.346 ± 1.1 and the log2 surviving fraction [2, 4] was 0.203. The log2 surviving fraction [2, 5] was -0.817, the log2 surviving fraction [3, 4] was 0.916 and the log2 surviving fraction [3, 5] was 0.0431.
Work on `C[C@]12C=CC(=O)C=C1CC[C@@H]1[C@@H]2C(=O)C[C@@]2(C)[C@H]1CC[C@]2(O)C(=O)CO` [Prednisone (Adasone)] yielded a log2 surviving fraction [1, 4] of 0.814 ± 2, a log2 surviving fraction [1, 5] of 0.439 ± 0.14 and a log2 surviving fraction [2, 4] of -0.191. The log2 surviving fraction [2, 5] was 0.0468, the log2 surviving fraction [3, 4] was -0.163 and the log2 surviving fraction [3, 5] was 0.281.
`COc1ccc2[nH]cc(CCNC(C)=O)c2c1` [Melatonin] was tested, and the log2 surviving fraction [1, 4] was 0.669 ± 0.042, the log2 surviving fraction [1, 5] was -1.84 ± 4 and the log2 surviving fraction [2, 4] was 1.42. It also gave a log2 surviving fraction [2, 5] of 1.45, a log2 surviving fraction [3, 4] of 0.401 and a log2 surviving fraction [3, 5] of 0.297.
`CN1C(CCl)Nc2cc(Cl)c(S(N)(=O)=O)cc2S1(=O)=O` (configuration not stated) [Methyclothiazide] was tested, and the log2 surviving fraction [1, 4] was -0.0288 ± 0.091, the log2 surviving fraction [1, 5] was 0.727 ± 0.24 and the log2 surviving fraction [2, 4] was -0.34. The log2 surviving fraction [2, 5] was 0.362, the log2 surviving fraction [3, 4] was -0.21 and the log2 surviving fraction [3, 5] was 0.431.
`NS(=O)(=O)c1cc(C(=O)O)c(NCc2ccco2)cc1Cl` [Furosemide (Lasix)] was tested, and the log2 surviving fraction [1, 4] was 0.122 ± 0.53, the log2 surviving fraction [1, 5] was 0.185 ± 0.0069 and the log2 surviving fraction [2, 4] was 0.81. The log2 surviving fraction [2, 5] was 0.739, the log2 surviving fraction [3, 4] was -0.0941 and the log2 surviving fraction [3, 5] was 0.367.
With `CC1(C)O[C@@H]2C[C@H]3[C@@H]4CCC5=CC(=O)C=C[C@]5(C)[C@H]4[C@@H](O)C[C@]3(C)[C@]2(C(=O)CO)O1` [Desonide] the log2 surviving fraction [1, 4] was 1.14 ± 0.069, the log2 surviving fraction [1, 5] was 0.29 ± 0.15 and the log2 surviving fraction [2, 4] was 0.686. It also gave a log2 surviving fraction [2, 5] of 0.34, a log2 surviving fraction [3, 4] of 1.87 and a log2 surviving fraction [3, 5] of -0.684.
`CCN(CC)CCOc1ccc(C(=C(Cl)c2ccccc2)c2ccccc2)cc1` [Clomifene citrate (Serophene)] gave a log2 surviving fraction [1, 4] of -5.63 ± 0.92, a log2 surviving fraction [1, 5] of -4.24 ± 2.2 and a log2 surviving fraction [2, 4] of -3.09. It also gave a log2 surviving fraction [2, 5] of -5.93, a log2 surviving fraction [3, 4] of -7.75 and a log2 surviving fraction [3, 5] of -11.7.
In the case of `COc1ccc([C@@H]2Sc3ccccc3N(CCN(C)C)C(=O)[C@@H]2OC(C)=O)cc1` [Diltiazem HCl (Tiazac)], the log2 surviving fraction [1, 4] is reported as -1.05 ± 0.66, the log2 surviving fraction [1, 5] is reported as 0.0889 ± 0.16 and the log2 surviving fraction [2, 4] is reported as -0.498. The log2 surviving fraction [2, 5] was -0.0987, the log2 surviving fraction [3, 4] was -0.933 and the log2 surviving fraction [3, 5] was -0.372.
For `CCN(CC)CCOCCOC(=O)C(CC)(CC)c1ccccc1` [Oxeladin Citrate], the log2 surviving fraction [1, 4] was -2.26 ± 0.028, the log2 surviving fraction [1, 5] was -1.02 ± 0.075 and the log2 surviving fraction [2, 4] was -2.97. For the same molecule, the log2 surviving fraction [2, 5] was -2.07, the log2 surviving fraction [3, 4] was -1.81 and the log2 surviving fraction [3, 5] was -0.392.
`CC[C@H]1OC(=O)C[C@@H](O)[C@H](C)[C@@H](O[C@@H]2O[C@H](C)[C@@H](O[C@H]3C[C@@](C)(O)[C@@H](O)[C@H](C)O3)[C@H](N(C)C)[C@H]2O)[C@@H](CC=O)C[C@@H](C)C(=O)/C=C/C(C)=C/[C@@H]1CO[C@@H]1O[C@H](C)[C@@H](O)[C@@H](OC)[C@H]1OC` [Tylosin tartrate] gave a log2 surviving fraction [1, 4] of 0.00931 ± 0.27, a log2 surviving fraction [1, 5] of -0.0804 ± 0.29 and a log2 surviving fraction [2, 4] of 0.355. For the same molecule, the log2 surviving fraction [2, 5] was -0.14, the log2 surviving fraction [3, 4] was -0.191 and the log2 surviving fraction [3, 5] was 0.174.
For `NS(=O)(=O)c1cc2c(cc1Cl)N=C(CSCc1ccccc1)NS2(=O)=O` [Benzthiazide], the log2 surviving fraction [1, 4] was 0.316 ± 0.6, the log2 surviving fraction [1, 5] was 0.344 ± 0.43 and the log2 surviving fraction [2, 4] was 0.664. For the same molecule, the log2 surviving fraction [2, 5] was 0.213, the log2 surviving fraction [3, 4] was 0.0924 and the log2 surviving fraction [3, 5] was 0.707.
With `CCCCOc1ccc(OCCCN2CCOCC2)cc1` [Pramoxine HCl] the log2 surviving fraction [1, 4] was -0.668 ± 0.24, the log2 surviving fraction [1, 5] was -0.518 ± 1.3 and the log2 surviving fraction [2, 4] was -0.2. It also gave a log2 surviving fraction [2, 5] of -0.463, a log2 surviving fraction [3, 4] of -0.00621 and a log2 surviving fraction [3, 5] of -1.03.
`COC(=O)[C@@H]1CC2=CC(=O)CC[C@]2(C)[C@@]23O[C@@H]2C[C@@]2(C)[C@@H](CC[C@@]24CCC(=O)O4)[C@H]13` [Eplerenone] gave a log2 surviving fraction [1, 4] of 0.553 ± 0.23, a log2 surviving fraction [1, 5] of 0.26 ± 0.25 and a log2 surviving fraction [2, 4] of -0.00811. The log2 surviving fraction [2, 5] was 1.14, the log2 surviving fraction [3, 4] was 0.354 and the log2 surviving fraction [3, 5] was 0.804.
In the case of `CN1CC2c3ccccc3Oc3ccc(Cl)cc3C2C1` (configuration not stated) [Asenapine], the log2 surviving fraction [1, 4] is reported as -0.803 ± 0.98, the log2 surviving fraction [1, 5] is reported as -3.52 ± 4 and the log2 surviving fraction [2, 4] is reported as -2.63. The log2 surviving fraction [2, 5] was 1.01, the log2 surviving fraction [3, 4] was -1.21 and the log2 surviving fraction [3, 5] was -0.0209.
`Clc1ccc2c(c1)C(N1CCNCC1)=Nc1ccccc1O2` [Amoxapine] was tested, and the log2 surviving fraction [1, 4] was -3.02 ± 0.99, the log2 surviving fraction [1, 5] was -0.544 ± 0.54 and the log2 surviving fraction [2, 4] was -4. It also gave a log2 surviving fraction [2, 5] of -1.33, a log2 surviving fraction [3, 4] of -2.89 and a log2 surviving fraction [3, 5] of -1.24.
